This note sets out measurements from PubChem BioAssay AID360 (National Center for Advancing Translational Sciences (NCATS), 2006).

Screen size: about 48,000 compounds; about 550 (1.1%) were called active. Roughly 4% stayed inconclusive and do not appear here. Rule as the data show it: active = potency below about 15 µM; inconclusive = mostly about 16 µM to 33 µM; inactive = weaker than that. Some of the results follow.
Potency is read from the fitted curve at half-maximal effect.

This test has as its target Lysosomal acid glucosylceramidase (Homo sapiens) (UniProt P04062). The test can be described thus: Glucocerebrosidase.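 Also: the screen sought inhibitors.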 The settings on record: purified enzyme, resorufin glucoside fluorescence (screen aimed at inhibitors), 20 min. An outline of the steps: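 Compounds titrated against 0.2 nM normal enzyme, 30 uM resorufin beta-D-glucopyranoside substrate, citrate/phosphate buffer with taurocholate and tween-20, pH 5.9. Reaction ran 20 min at room temperature; fluorescence (Ex 548/Em 600) gave AC50.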
UniProt P04062, sequence (P04062 whole entry, looked up): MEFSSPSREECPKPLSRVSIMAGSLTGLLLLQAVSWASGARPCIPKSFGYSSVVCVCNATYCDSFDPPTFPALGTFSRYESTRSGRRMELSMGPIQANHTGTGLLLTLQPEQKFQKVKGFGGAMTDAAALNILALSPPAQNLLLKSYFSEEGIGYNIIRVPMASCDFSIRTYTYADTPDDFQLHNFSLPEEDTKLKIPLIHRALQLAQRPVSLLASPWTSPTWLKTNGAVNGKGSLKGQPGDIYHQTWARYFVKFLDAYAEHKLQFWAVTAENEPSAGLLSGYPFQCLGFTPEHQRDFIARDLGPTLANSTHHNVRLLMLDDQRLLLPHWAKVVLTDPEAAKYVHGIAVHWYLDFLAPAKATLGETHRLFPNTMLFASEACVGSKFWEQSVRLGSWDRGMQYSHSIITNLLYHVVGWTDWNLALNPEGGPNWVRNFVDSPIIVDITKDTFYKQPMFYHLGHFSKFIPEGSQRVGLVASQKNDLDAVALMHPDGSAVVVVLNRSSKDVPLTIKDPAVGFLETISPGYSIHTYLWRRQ
Consider `N#Cc1c(NC(=O)CSC2=NCCS2)sc2c1CCCC2`, for which the Potency was inactive: > 76.9 µM.

Consider `CCOc1ccc(N2CC(C(=O)NC(C)C)CC2=O)cc1` (stereo not given), for which the Potency was inactive: > 76.9 µM.

In the case of `Cc1ccc(-n2ncc3c(=O)n(CC(=O)NC4CCCCC4)cnc32)cc1`, the Potency was inactive: > 76.9 µM.

For `O=C1N2CCSC2=NC1(Nc1ccccn1)C(F)(F)F` (stereo not given), the Potency was inactive: > 76.9 µM.

Take `O=C(O)C1CCCN1c1ncnc2ccccc12` (stereo not given): the Potency is inactive: > 76.9 µM.

In the case of `O=C(COc1ccccc1O)N1CCN(C(=O)c2ccco2)CC1`, the Potency is inactive: > 76.9 µM.

For `Cc1cc(OCCSc2nnc(-c3cccs3)n2C)ccc1Cl`, the Potency is inactive: > 76.9 µM.

As to `O=C(NCCOc1ccccc1)c1n[nH]c(=O)c2ccccc12`, the Potency was inactive: > 76.9 µM.

Take `CC(CN1CCCCC1)OC(=O)c1ccc2c(c1)OCO2` (stereo not given): the Potency was inactive: > 76.9 µM.

As for `COC(=O)c1ccc(OC(=O)C2CC(=O)N(c3ccc(C)cc3C)C2)cc1` (stereo not given), the Potency is inactive: > 76.9 µM.

Regarding `O=C(O)c1cc2nc(-c3ccccc3)cc(C(F)(F)F)n2n1`, the Potency is inactive: > 76.9 µM.

Regarding `CCOC(=O)Cc1c(C)nc2c(-c3ccccc3)c[nH]n2c1=O`, the Potency result was “inactive”.

Regarding `CCCOc1ccc(C2C(C(=O)c3ccc(C)o3)=C(O)C(=O)N2CCN2CCOCC2)cc1OC` (stereo not given), the Potency is inactive: > 76.9 µM.

In the case of `CCOc1ccc(CN2C(=O)c3ccccc3C2C(=O)NCc2cccnc2)cc1` (stereo not given), the Potency was inactive: > 76.9 µM.

Turning to `O=C(CS(=O)(=O)c1cn(Cc2ccc(F)cc2)c2ccccc12)N1CCCCC1`, the Potency is inactive: > 76.9 µM.

With `O=C(CN1C(=O)c2cccc3cccc1c23)Nc1ccc(S(=O)(=O)N2CCOCC2)cc1`, the Potency was inactive: > 76.9 µM.

With `CC1(C)Cc2c(C#N)c(OCC(=O)c3ccc(Cl)cc3)nc(-c3ccco3)c2CO1`, the Potency is inactive: > 76.9 µM.

Turning to `O=C(CCN1CCCCC1)NCC1OCCc2ccccc21` (stereo not given), the Potency was inactive: > 76.9 µM.

As to `O=C(CC1(O)C(=O)N(Cc2ccccc2Cl)c2ccccc21)c1ccco1` (stereo not given), the Potency was inactive: > 76.9 µM.

`O=C(NCN1CCc2ccccc2C1)c1cnccn1`: the Potency is inactive: > 76.9 µM.

As for `O=C(N1CCOCC1)N(Cc1ccccc1)c1ccccn1`, the Potency was inactive: > 76.9 µM.

As for `COC(=O)C1CCN(c2cc(=O)n(-c3ccccc3Cl)c(=O)[nH]2)CC1`, the Potency was inactive: > 76.9 µM.

For the molecule `COc1ccc(CCN(Cc2cc3cccc(C)c3[nH]c2=O)C(=O)N2CCCC2)cc1OC`, the Potency is inactive: > 76.9 µM.

On to `Cc1ccc(SCCC(=O)N2CCC(C(N)=O)CC2)cc1`, for which the Potency is inactive: > 76.9 µM.

On to `CCC(=O)Nc1cccc(NC(=O)CSc2nnnn2Cc2ccccc2)c1`, for which the Potency result was “inactive”.
